# Measured values: US20250297007A1 (published 2025)
# T1: TCR Vβ6 (TCRVβ6-5 / TCR Vβ13.1) on human T cells (human)
# T1 TCR beta: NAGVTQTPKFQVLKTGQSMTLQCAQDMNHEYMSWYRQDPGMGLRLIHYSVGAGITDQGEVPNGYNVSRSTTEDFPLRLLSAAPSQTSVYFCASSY
# B1: BKM0186 (other)
# heavy: QVQLVQSGAEVKKPGSSVKVSCKASGHDFRLTYIHWVRQAPGQGLEWMGRVSAGSGNVKYNEKFKGRVTITADTSTSTAYMELSSLRSEDTAVYYCAVSYYSYDVLDYWGQGTTVTVSSASTKGPSVFPLAPSSKSTSGGTAALGCLVKDYFPEPVTVSWNSGALTSGVHTFPAVLQSSGLYSLSSVVTVPSSSLGTQTYICNVNHKPSNTKVDKRVEPKSCDKTHTCPPCPAPELLGGPSVFLFPPKPKDTLMISRTPEVTCVVVDVSHEDPEVKFNWYVDGVEVHNAKTKPREEQYASTYRVVSVLTVLHQDWLNGKEYKCKVSNKALPAPIEKTISKAKGQPREPQVCTLPPSREEMTKNQVSLSCAVKGFYPSDIAVEWESNGQPENNYKTTPPVLDSDGSFFLVSKLTVDKSRWQQGNVFSCSVMHEALHNHYTQKSLSLSPGK
# chain: [about 150 residues not shown]GGGGSGGGGS[human IgG1 Fc with changes not shown]
# light: DIQMTQSPSFLSASVGDRVTITCKASQNVADRVVWHQQKPGKAPKALIYSSSHRYKGVPSRFSGSGSGTEFTLTISSLQPEDFATYFCQQFKSYPLTFGQGTKLEIKRTVAAPSVFIFPPSDEQLKSGTASVVCLLNNFYPREAKVQWKVDNALQSGNSQESVTEQDSKDSTYSLSSTLTLSKADYEKHKVYACEVTHQGLSSPVTKSFNRGEC
# Molecular target: T1, TCR Vβ6 (TCRVβ6-5 / TCR Vβ13.1) on …
# Experiment: cell-based or functional assay
binder,measurement,value
B1,"proliferation of Vβ6 T cells as a proportion of the total CD4+ T cell population (human PBMCs, 5 days), EC50",12 nM
same,"proliferation of Vβ6 T cells as a proportion of the total CD8+ T cell population (human PBMCs, 5 days), EC50",6 nM
